The source of these data is PubChem BioAssay AID330 (DTP/NCI, 2004).

Inconclusive results and toxic doses are left out. Some entries of the source have several records that differ or are many. Only these are listed. The source may hold further records. The records of an entry do not match, cause unknown; they may come from other doses, times, organisms or constructs than stated. What stands in brackets tells the records apart. The letters are not those of the source and start again with each entry.

The assay deals with P388 leukemia ip, CD2F1 mice, survival T/C. Nature of the assay: NCI In Vivo Anticancer Drug Screen. Data for tumor model P388 Leukemia (intraperitoneal) in CD2F1 (CDF1) mice. As to conditions: endpoint: median survival time, higher = longer survival.

Consider `COc1cccc2c1C(=O)c1c(O)c3c(c(O)c1C2=O)C[C@@](O)(C(O)O)C[C@@H]3OC1CC(N)C(O)C(C)O1` (some centres undefined), for which, for the setting “dose: 50.0 mg/kg/injection, schedule: Q04DX003 (ip), vehicle: water”, the T/C was 121 % of control and 153 % of control.
On to `COc1cccc2c1C(=O)c1c(O)c3c(c(O)c1C2=O)CC(O)(C(C)=O)CC3OC1CC(N)C(O)C(C)O1` (centres undefined), for which the T/C is 115 % of control and 155 % of control (dose: 11.7 mg/kg/injection, schedule: Q01DX009 (ip), vehicle: saline); 87 % of control, 94 % of control [sample A] and 90 % of control, 113 % of control [sample B] and 105 % of control, 106 % of control [sample C] and 114 % of control, 192 % of control [sample D] and 116 % of control, 181 % of control [sample E] (dose: 20.0 mg/kg/injection, schedule: Q01DX009 (ip), vehicle: water).
Regarding `COc1cccc2c1C(=N)c1c(O)c3c(c(O)c1C2=O)C[C@@](O)(C(O)CO)C[C@@H]3OC1CC(N2CCOCC2)C(O)C(C)O1` (some centres undefined), the T/C (dose: 25.0 mg/kg/injection, schedule: Q04DX003 (ip), vehicle: water) was 111 % of control and 159 % of control.
